Screen size: about 310,000 compounds; about 14,000 (4.5%) showed an effect of 50% or more. Effects have a minus sign here. This is one part of the list.
Each compound was assayed against human ether-à-go-go-related gene (hERG) potassium channel (human, UniProt Q12809) (assay: primary screen, population patch clamp on CHO cells stably expressing hERG).
human ether-à-go-go-related gene (hERG) potassium channel, sequence (Q12809 whole entry, looked up): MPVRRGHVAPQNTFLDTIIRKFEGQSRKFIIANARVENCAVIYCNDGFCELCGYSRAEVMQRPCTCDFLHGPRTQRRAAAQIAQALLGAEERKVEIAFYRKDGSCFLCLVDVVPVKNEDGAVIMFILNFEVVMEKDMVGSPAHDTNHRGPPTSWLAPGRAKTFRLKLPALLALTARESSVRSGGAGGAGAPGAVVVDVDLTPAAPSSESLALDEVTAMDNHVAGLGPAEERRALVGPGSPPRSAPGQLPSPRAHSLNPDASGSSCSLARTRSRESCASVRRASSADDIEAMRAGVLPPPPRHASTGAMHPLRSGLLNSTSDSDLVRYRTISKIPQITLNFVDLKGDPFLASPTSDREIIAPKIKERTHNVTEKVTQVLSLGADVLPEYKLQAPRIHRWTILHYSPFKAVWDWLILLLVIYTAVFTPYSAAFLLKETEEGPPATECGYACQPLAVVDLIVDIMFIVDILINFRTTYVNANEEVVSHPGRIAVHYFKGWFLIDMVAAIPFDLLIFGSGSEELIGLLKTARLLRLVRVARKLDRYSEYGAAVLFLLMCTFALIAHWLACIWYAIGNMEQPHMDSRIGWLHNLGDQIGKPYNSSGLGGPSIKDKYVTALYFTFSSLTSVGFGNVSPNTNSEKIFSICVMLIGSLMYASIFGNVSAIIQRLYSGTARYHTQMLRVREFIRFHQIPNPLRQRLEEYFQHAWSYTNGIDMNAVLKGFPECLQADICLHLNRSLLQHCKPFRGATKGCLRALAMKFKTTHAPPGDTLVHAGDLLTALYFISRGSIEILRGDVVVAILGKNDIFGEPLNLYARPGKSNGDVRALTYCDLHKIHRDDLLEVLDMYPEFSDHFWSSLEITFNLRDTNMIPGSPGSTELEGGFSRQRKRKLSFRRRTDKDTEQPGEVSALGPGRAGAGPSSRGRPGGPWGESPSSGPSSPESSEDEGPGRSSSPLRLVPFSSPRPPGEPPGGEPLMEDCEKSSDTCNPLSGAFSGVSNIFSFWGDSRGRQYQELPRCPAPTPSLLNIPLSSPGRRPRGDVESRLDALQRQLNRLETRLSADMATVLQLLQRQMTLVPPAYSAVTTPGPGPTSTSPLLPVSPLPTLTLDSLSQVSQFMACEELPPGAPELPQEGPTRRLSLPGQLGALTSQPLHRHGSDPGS
O=C(N/N=C\c1cccs1)c1sccc1-n1cccc1 was tested, and the “hERG current change (%, negative = inhibition) at 10uM” value was 8.13%. In the case of CC(C)CCn1c(SCCN2CCOCC2)nc2c1c(=O)[nH]c(=O)n2C, the “hERG current change (%, negative = inhibition) at 10uM” value is reported as -17.7%. For Cc1ccc(N=C2C(=S)N(c3ccc(C)cc3)C(=N)N2/N=C/c2ccc(Cl)cc2)cc1, the “hERG current change (%, negative = inhibition) at 10uM” value was -6.29%. For CC1CCC2(CC1)NC(=O)N(NC(=O)c1cccc(N(C)C)c1)C2=O (stereo not drawn), the “hERG current change (%, negative = inhibition) at 10uM” value was 0.939%. With COc1ccc(CCC2(C)NC(=O)NC2=O)cc1 (stereo not drawn) the “hERG current change (%, negative = inhibition) at 10uM” value was -10.4%. For O=C(Nc1ccc(Cl)cc1Cl)NC1CCCC1, the “hERG current change (%, negative = inhibition) at 10uM” value was 15.2%. With O=C(CNC(=O)c1ccncc1)N/N=C/c1ccccc1[N+](=O)[O-] the “hERG current change (%, negative = inhibition) at 10uM” value was 3.3%. With COc1ccc(NC(=O)C2CCCN(S(=O)(=O)c3cccc4nonc34)C2)cc1OC (stereo not drawn) the “hERG current change (%, negative = inhibition) at 10uM” value was 19.7%. For Cc1ccc(-c2nnc(N3CCN(S(C)(=O)=O)CC3)c3ccccc23)cc1, the “hERG current change (%, negative = inhibition) at 10uM” value was -32.5%. With CCC(C)n1c(O)c(C=NC(C)c2ccccc2)c(=O)[nH]c1=S (stereo not drawn) the “hERG current change (%, negative = inhibition) at 10uM” value was 25%. In the case of Cc1csc(=O)n1CCC(=O)OCC(=O)Nc1cc(Cl)ccc1[N+](=O)[O-], the “hERG current change (%, negative = inhibition) at 10uM” value is reported as -28.5%. With COc1ccc(CNC(=O)N2CCN(c3ccc(F)cc3)CC2)cc1 the “hERG current change (%, negative = inhibition) at 10uM” value was -6.24%. For CCN1CCN(C(=O)CN(c2cc(OC)ccc2OC)S(C)(=O)=O)CC1, the “hERG current change (%, negative = inhibition) at 10uM” value was 16.2%. CCOc1nc(N(C)C)nc(-n2nnc(C(C)=O)c2C)n1 was tested, and the “hERG current change (%, negative = inhibition) at 10uM” value was 4.46%. O=C(NCCCN1CCOCC1)/C(=C/c1ccco1)NC(=O)c1ccccc1 was tested, and the “hERG current change (%, negative = inhibition) at 10uM” value was 1.44%. With CCOc1ccc(-n2nc3cc(C)c(N)cc3n2)cc1 the “hERG current change (%, negative = inhibition) at 10uM” value was 14.5%. In the case of Cc1cc(C(=O)N/N=C/c2cccnc2)c(C)o1, the “hERG current change (%, negative = inhibition) at 10uM” value is reported as 8.2%. With O=C(Nc1ccccc1C(=O)Nc1ccccn1)c1ccccc1F the “hERG current change (%, negative = inhibition) at 10uM” value was 6.58%. With CCC1CCCCN1Cc1c(O)ccc2c(=O)c(-c3ccccc3OC)coc12 (stereo not drawn) the “hERG current change (%, negative = inhibition) at 10uM” value was 1.72%. COc1cc(/C=N/NC(N)=O)cc(Br)c1OCc1ccccc1C was tested, and the “hERG current change (%, negative = inhibition) at 10uM” value was 7.11%. In the case of Cc1ccc(NC(=O)C2CCCN(S(=O)(=O)c3c(C)noc3C)C2)c(Br)c1 (stereo not drawn), the “hERG current change (%, negative = inhibition) at 10uM” value is reported as 13.2%. For CCN1CCN(c2nc3c(c(=O)n(C)c(=O)n3C)n2CCSc2nccc(C)n2)CC1, the “hERG current change (%, negative = inhibition) at 10uM” value was 1.66%. For NC(=S)NNC(=O)c1cccc(Br)c1, the “hERG current change (%, negative = inhibition) at 10uM” value was 6.23%. C=CCn1c(O)c(C=Nc2ccc(F)cc2)c(=O)[nH]c1=O was tested, and the “hERG current change (%, negative = inhibition) at 10uM” value was 4.49%. In the case of COc1cc(C(=O)Nc2ccc(-c3nnc(-c4ccco4)o3)cc2)cc(OC)c1OC, the “hERG current change (%, negative = inhibition) at 10uM” value is reported as -3.23%. CCOC(=O)C(NC(C)=O)(Nc1ccc(F)cc1)C(F)(F)F (stereo not drawn) was tested, and the “hERG current change (%, negative = inhibition) at 10uM” value was -3.72%. CCOC(=O)C1=C(C)N[C@@]2(O)c3ccccc3C(=O)[C@@]12O was tested, and the “hERG current change (%, negative = inhibition) at 10uM” value was 4.84%. For Cc1csc(SCC(=O)NC(=O)NC(C)C)n1, the “hERG current change (%, negative = inhibition) at 10uM” value was 10.2%. Cc1ccc(NC(=O)C(C)S)cc1 (stereo not drawn) was tested, and the “hERG current change (%, negative = inhibition) at 10uM” value was 13.6%. With O=C(Nc1ccc2nc(-c3cccs3)c(-c3cccs3)nc2c1)N1CCOCC1 the “hERG current change (%, negative = inhibition) at 10uM” value was 5.35%. With COc1cc(NC(=O)CSc2nc3ncnc(N)c3[nH]2)c(C(=O)O)cc1OC the “hERG current change (%, negative = inhibition) at 10uM” value was 18.3%. For CCOP(=O)(OCC)C(O)c1ccc(Br)cc1 (stereo not drawn), the “hERG current change (%, negative = inhibition) at 10uM” value was 13.3%. For CCOC(=O)C1CCN(S(=O)(=O)c2ccc3c(c2)CC(C)N3C(=O)C2CCC2)CC1 (stereo not drawn), the “hERG current change (%, negative = inhibition) at 10uM” value was -21.4%. With COc1cc2c(cc1OC)C(c1ccccc1O)NCC2 (stereo not drawn) the “hERG current change (%, negative = inhibition) at 10uM” value was 12.6%. Cc1ccc(NC(=O)c2ccnc(C(C)(C)C)c2)cc1 was tested, and the “hERG current change (%, negative = inhibition) at 10uM” value was -9.29%. For NNc1nc2ccccc2c(=O)n1Cc1ccccc1, the “hERG current change (%, negative = inhibition) at 10uM” value was 20.4%. For Cc1ccc(C(C(=O)NCc2ccco2)N(C(=O)CNC(=O)c2cccs2)c2c(C)cc(C)cc2C)cc1 (stereo not drawn), the “hERG current change (%, negative = inhibition) at 10uM” value was -9.79%. CCOC(=O)c1oc2ccc(S(=O)(=O)N3CCOCC3)cc2c1C was tested, and the “hERG current change (%, negative = inhibition) at 10uM” value was -1.64%. O=C(Cc1nc(-c2ccc([N+](=O)[O-])cc2)cs1)Nc1ccccc1 was tested, and the “hERG current change (%, negative = inhibition) at 10uM” value was -7.08%. In the case of Cc1ccc(OCC(=O)N/N=C/c2cc([N+](=O)[O-])ccc2N2CCCCC2)cc1, the “hERG current change (%, negative = inhibition) at 10uM” value is reported as -13.8%. For N#CCC(=O)Nc1ccc(C(=O)OCC(=O)NNC(=O)c2cccs2)cc1, the “hERG current change (%, negative = inhibition) at 10uM” value was -34.9%. With Cc1cc(SCC(=O)OCC(=O)NC(C)c2ccccc2)c(C)cc1Br (stereo not drawn) the “hERG current change (%, negative = inhibition) at 10uM” value was 22.7%. In the case of CCN(c1ccccc1)S(=O)(=O)c1ccc(Cl)c(NC(=O)COC(=O)c2ccc[n+]([O-])c2)c1, the “hERG current change (%, negative = inhibition) at 10uM” value is reported as -29.9%. For Cc1c(Cl)cccc1NC(=O)CCCn1nc([N+](=O)[O-])cc1C, the “hERG current change (%, negative = inhibition) at 10uM” value was 3.57%. CSC1=NC(C)N2C(SC)=NC(C)N12 (stereo not drawn) was tested, and the “hERG current change (%, negative = inhibition) at 10uM” value was 18.9%. For COCCn1c(SCC(=O)NCc2ccc3c(c2)OCO3)nnc1-c1c[nH]c2ccccc12, the “hERG current change (%, negative = inhibition) at 10uM” value was -12.2%. With CNS(=O)(=O)c1cccc(C(=O)OCc2cc(Cl)cc3c2OCOC3)c1 the “hERG current change (%, negative = inhibition) at 10uM” value was -17%. For COc1ccc(C(=O)CC(=O)C(=O)Nc2cc(C)ccc2C)cc1, the “hERG current change (%, negative = inhibition) at 10uM” value was 5.68%. In the case of COCc1c(C(=O)N/N=C(/C)c2cccs2)nnn1-c1nonc1N, the “hERG current change (%, negative = inhibition) at 10uM” value is reported as 21.4%. CC(C1CC1)N(C(=O)c1ccccc1O)c1ccccc1 (stereo not drawn) was tested, and the “hERG current change (%, negative = inhibition) at 10uM” value was 9.8%. In the case of COc1ccc(NC(=S)NNC(=O)c2cccnc2)cc1OC, the “hERG current change (%, negative = inhibition) at 10uM” value is reported as 18.3%. Cn1cc(C(=O)c2ccccc2)cc1-c1nc2ccccc2n1C was tested, and the “hERG current change (%, negative = inhibition) at 10uM” value was -41.9%. With Cc1cn(C(=O)c2ccccc2)c(=S)n1-c1ccc(Br)cc1 the “hERG current change (%, negative = inhibition) at 10uM” value was 17.5%. With Cc1nc(CN2CCN(Cc3nc(C(c4ccccc4)c4ccccc4)no3)CC2)cs1 the “hERG current change (%, negative = inhibition) at 10uM” value was -45.5%. O=C(N/N=C/c1ccccc1F)NC12CC3CC(CC(C3)C1)C2 was tested, and the “hERG current change (%, negative = inhibition) at 10uM” value was 14.1%. With CCOc1ccc(NS(=O)(=O)c2ccc(NS(C)(=O)=O)cc2)cc1 the “hERG current change (%, negative = inhibition) at 10uM” value was -18.9%. COC(=O)CCC(=O)Nc1ccc(NC(=O)CCC(=O)OC)cc1 was tested, and the “hERG current change (%, negative = inhibition) at 10uM” value was -8.55%.

Reference: PMC4336329 (PLoS ONE, 2015)
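Further: peak tail current of the secondary pulse compared with the same well before compound.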
